Here are results for 24 molecules from PubChem BioAssay (NCI).

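How tested: cells in 96-well plates exposed to compound for 48 hours at five concentrations. GI50 is the concentration that inhibits growth by half. TGI is the concentration that stops growth completely.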

The subject of the test is NCI-H322M lung. Put plainly: NCI tumour cell line growth inhibition, 48 h.
`COc1cc(C=O)cc(C=Nc2ccc(S(N)(=O)=O)cc2)c1O`: the TGI stood at 58.9 µM.

The molecule `COc1ccccc1NS(=O)(=O)c1ccc2ncn(NS(=O)(=O)c3ccc(Cl)cc3)c(=O)c2c1` yielded a TGI greater than 100 µM.

`C#CCOC(=O)C(N)CCSC` (centres undefined) came in with a TGI greater than 100 µM.

Turning to `CC1(C)CC[C@]2(C(=O)O)[C@H](O)C[C@]3(C)C(=CC[C@@H]4[C@@]5(C)CC[C@H](OC6OC(C(=O)O)C(O)C(O)C6O)C(C)(C)[C@@H]5CC[C@]43C)[C@@H]2C1` (some centres undefined), the TGI is greater than 100 µM.

As to `Oc1c(CN2CCOCC2)cc(COCc2ccccc2)c2cccnc12`, the GI50 is 2.79 µM and the TGI is greater than 100 µM.

In the case of `COc1ccccc1NCC(=O)Nn1c(C)nc2ccc(S(=O)(=O)Nc3ccccc3OC)cc2c1=O`, the TGI was greater than 100 µM.

As to `O=C1OC(=O)C2C1C(c1ccccc1[N+](=O)[O-])C=C(c1ccco1)N2c1ccncc1` (centres undefined), the TGI worked out at 29.9 µM.

In the case of `COc1cc2c(cc1OCCCCCOc1cc3c(cc1OC)C(=O)N1CCC[C@H]1CN3)N=C[C@@H]1CCCN1C2=O`, the TGI was found to be 49.6 µM.

Regarding `COc1cc(-c2nn(-c3ccc(NC(=O)c4cc(Cl)cc(Cl)c4)cc3)cc2-c2ccncc2)ccc1Cl`, the GI50 is greater than 100 µM and the TGI is greater than 100 µM.

Turning to `CCCn1c(N)c(C(=O)CNc2ccc(I)cc2)c(=O)[nH]c1=O`, the GI50 was greater than 100 µM and the TGI was greater than 100 µM.

In turn, `NC(=O)N/N=C(/c1nc2ccc([N+](=O)[O-])cc2[nH]c1=O)C(O)c1ccco1` (centres undefined) gave a TGI greater than 100 µM.

Regarding `COc1ccc(/C=N/N=C(\[O-])c2ccncc2)cc1F.COc1ccc(/C=N\N=C(/[O-])c2ccncc2)cc1F.[Cu+2]`, the GI50 is 30.5 µM and the TGI was 87.8 µM.

`Cc1cc(S(=O)(=O)Nc2nc3cc(Cl)ccc3o2)c(SCc2ccccc2)cc1Cl`: the GI50 was 16.7 µM and the TGI turned out to be 36.1 µM.

Molecule `CC1=CC(=O)/C(=C/n2c(=S)[nH]c3ccccc32)C(=O)O1` had a TGI greater than 100 µM.

With `Cc1c(C(=O)O[C@H]2[C@@H]3[C@H](C)CC[C@H]3[C@]3(C)O[C@@]2(C2CCCCC2)C[C@H]3OC(=O)CO)ccc2ccccc12`, the GI50 is 7.93 µM and the TGI turned out to be 15 µM.

`N#C/C(=C\c1ccccc1Br)C(=O)c1ccccc1` had a TGI greater than 100 µM.

For `COc1ccc2c(c1)CC[C@@H]1[C@@H]2CC[C@]2(C)C=C(/C=C/C(=O)c3ccccc3)C[C@@H]12`, the GI50 was 18.2 µM and the TGI was 38.7 µM.

Regarding `C1C[OH+]CC[OH+]CC[OH+]CC[OH+]CC[OH+]CC[OH+]1.[Cl-].[Nb+5]`, the GI50 is greater than 100 µM and the TGI was greater than 100 µM.

The molecule `N#Cc1c2c(c(-c3cccs3)n(C3OC(CO)C(O)C(O)C3O)c1=S)CCc1ccccc1-2` (centres undefined) returned a TGI greater than 100 µM.

Molecule `N=C(c1cccs1)C1(N2CCCCC2)CCCCC1` showed a TGI of 48.8 µM.

`O=C1c2cc([N+](=O)[O-])sc2C(=O)c2ccsc21` returned a TGI of 3.05 µM.

With `CCOc1cc(C(C)(C)C)ccc1C1=N[C@@](C)(c2ccc(Cl)cc2)[C@@](C)(c2ccc(Cl)cc2)N1C(=O)N1CCN(CCS(C)(=O)=O)CC1`, the GI50 is 3.98 µM and the TGI was found to be 17.3 µM.

Turning to `CN1CCN(CCOc2ccc(-c3cnc4c(-c5ccc(F)cc5)cnn4c3)cc2)CC1`, the GI50 is 1.66 µM and the TGI came out at 3.22 µM.

As to `C[n+]1c(N)n(C(=O)OCc2ccccc2)c(=O)c2c1ncn2C(=O)OCc1ccccc1`, the TGI was greater than 100 µM.
